Test results published in patent publication US20250059201A1, “CAMPTOTHECIN COMPOUND AND CONJUGATE THEREOF” (priority 2021, published 2025).
Where two headings read alike, the source gives them in different places.

Key:
[1] = system: HT1376 human bladder cancer cells; test: Therapeutic effect on subcutaneous tumor in nude mice (bladder cancer model); assay type: in vivo; settings: for Mean tumor volume (mm^3) D 0: D 0 (baseline)
Procedure: HT1376 human bladder cancer cells purchased from the cell bank in Chinese academy of sciences were used. HT1376 cells were cultured in 10-cm culture dishes for adherent culture, in RPMI 1640 containing 10o Fetal Bovine Serum with penicillin and streptomycin supplemented, at 37° C. in an incubator containing 500 CO2. The cells were passaged 2-3 times in one week, and when in exponential growth phase, they were digested using trypsin, harvested, counted and inoculated.
A comparison study was performed between groups of different doses of antibody-drug conjugate Trop2-ADC-14 which was taken as an example (Table 14). Mice were administered with the ADC via intravenous injection (IV), at an administration volume of 10 mL/kg; the mice in the group of vehicle were administered with the same volume of vehicle (saline). Tumor volumes were measured 2 times per week, and the mice were weighed and the data were recorded.
When the experiment was completed, the experiment achieved the end point, or the tumor volume achieved 2000 mm^3, the animals were sacrificed under CO2 anesthesia and the tumors were dissected and photographed. Results are shown in Table 14 and FIG. 3, in which the growth changes in tumor volume of mice in each group are shown.

BxPC-3 cells = test: Apoptosis-inducing effect; assay type: cell-based
Procedure: BxPC-3 cells (purchased from: ATCC) were inoculated into 6-well plates, and then treated with Trop2-ADC-14 (0.020, 0.196, and 1.963 nM), DS-1062 (0.020, 0.196, and 1.963 nM), the mAb in Trop2-ADC-14 (i.e., antibody h23-12) (6.728 nM) and Compound 3 (0.1, 1, and 10 nM) for 120 hours. Next, the cells were harvested, and Annexin-V-FITC and PI were added thereto, and the cells were stained at room temperature for 15 minutes in dark, and finally were re-suspended in the added 300 μl of 1× binding buffer. Apoptosis was detected with a flow cytometer (BD AccuriTMC6 Plus flow cytometer), for which 1×10^4 cells were gated for each group. Experimental data was analyzed using software BD CSampler™ Plus C6.

HT-29 = test: Proliferation-inhibiting effect on tumor cells (SRB or MTT assay); assay type: cell-based, human; settings: HT-29, 144 hours
Procedure: (§1) For cells growing by adherence, SRB assay was used to detect effect of antibody-drug conjugates or camptothecins on the proliferation of tumor cells in vitro cultured. A certain number of cells in exponential growth phase were inoculated in 96-well cell culture plates, and when the cells grew by adherence overnight, antibody drug conjugates or camptothecins of different concentrations were added into the cells. 144 hours later, the cells were fixed with trichloroacetic acid, and then stained with SRB (prepared in 1% glacial acetic acid at a concentration of 4 mg/mL). 10 mM Tris solution was added into each well to solubilize the bound SRB. OD values at 510 nm were read on a microplate reader.
(§2) Inhibition (%)=([…] of control well−OD value of dosed well)/OD value of control well×100%
(§3) For cells growing in suspension, MTT assay was used to detect effect of antibody-drug conjugates or camptothecins on the proliferation of tumor cells in vitro cultured. A certain number of cells in exponential growth phase were inoculated in 96-well cell culture plates, and when the cells grew in suspension overnight, antibody-drug conjugates or camptothecins of different concentrations were added into the cells. 144 hours later, MTT was added to each well of the plates, and the incubation was continued for 4 hours at 37° C. in a 5% CO2 saturated humidity incubator. Next, 100 μL of SDS-isobutanol-HCl solution was added into each well of the plates, and OD values at 570 nm and 690 nm were read on a microplate reader.
(§4) Half maximal inhibitory concentration (IC50) was calculated from the inhibition (%) at those different concentrations using the software Graphpad Prism 8.0. The experiment was repeated once and the data was expressed as mean±SD.

HT1376 = test: as above; assay type: cell-based, human; settings: HT1376, 144 hours
Procedure: as §1, §2, §3, §4

Calu-3 = test: as above; assay type: cell-based, human; settings: Calu-3, 144 hours
Procedure: as §1, §2, §3, §4

[2] = system: Calu-3 human lung cancer cells; test: Therapeutic effect on subcutaneous tumor in nude mice (lung cancer model); assay type: in vivo; settings: for Mean tumor volume (mm^3) D 0: D 0 (baseline)
Procedure: Calu-3 lung cancer cells purchased from the cell bank in Chinese academy of sciences were used. Calu-3 cells were cultured in 10-cm culture dishes for adherent culture, in RPMI 1640 containing 10% Fetal Bovine Serum with penicillin and streptomycin supplemented, at 37° C. in an incubator containing 5% CO2. The cells were passaged 2-3 times in one week, and when in exponential growth phase, they were digested using trypsin, harvested, counted and inoculated.
A comparison study was performed between groups of different doses of antibody-drug conjugate Trop2-ADC-14 which was taken as an example (Table 15). Mice were administered with the ADC via intravenous injection (IV), at an administration volume of 10 mL/kg; the mice in the group of vehicle were administered with the same volume of vehicle (saline). Tumor volumes were measured 2 times per week, and the mice were weighed and the data were recorded.
When the experiment was completed, the experiment achieved the end point, or the tumor volume achieved 2000 mm^3, the animals were sacrificed under CO2 anesthesia and the tumors were dissected and photographed. Results are shown in Table 15 and FIG. 4, in which the growth changes in tumor volume of mice in each group are shown.

[3] = system: BxPC-3 cells positive for Trop-2; test: Internalization function (flow cytometry of fluorescently labeled drug); assay type: cell-based
Procedure: BxPC-3 cells (purchased from: ATCC) were inoculated into 6-well plates, and fluorescently labeled Trop2-ADC-14 and the mAb in Trop2-ADC-14 (i.e., antibody h23-12) each at 1 g/mL were added thereto respectively. The cells were incubated at 37° C. for 3, 6, 12, 18, 24, and 48 hours respectively, and then were digested with trypsin. The Trop2-ADC-14 and the mAb h23-12 not internalized were washed away, and fluorescence intensity was measured with a flow cytometer (BD ACCURI C6 PLUS). The experiment was repeated once.

[4] = read-out: IC50 (nM) 1st experiment
[5] = read-out: IC50 (nM) 2nd experiment

B1: Trop2-ADC-14 (conjugate)
heavy: QVQLVQSGAEVKKPGASVKVSCKASGYTFTSYWMHWVRQAPGQGLEWMGEITPSDNYGSYNQKFKGRVTITRDTSTSTAYMELSSLRSEDTAVYYCARGHGNYVSFDYWGQGTLVTVSSASTKGPSVFPLAPSSKSTSGGTAALGCLVKDYFPEPVTVSWNSGALTSGVHTFPAVLQSSGLYSLSSVVTVPSSSLGTQTYICNVNHKPSNTKVDKRV[not shown - human IgG1 Fc]
light: DIQMTQSPSSLSASVGDRVTITCRASQDISNYLNWYQQKPGKAPKLLIYYTSRLESGVPSRFSGSGSGTDFTLTISSLQPEDFATYFCQQGYTLPPYTFGQGTKLEIKRTVAAPSVFIFPPSDEQLKSGTASVVCLLNNFYPREAKVQWKVDNALQSGNSQESVTEQDSKDSTYSLSSTLTLSKADYEKHKVYACEVTHQGLSSPVTKSFNRGEC
With B1 the “Mean tumor volume (mm^3) D 0” value ([1]; 1 mg/kg IV) was 126.07 mm^3, the “Mean tumor volume (mm^3) D 21” value ([1]; 1 mg/kg IV) was 601.9 mm^3 and the “TGI (%) D 21” value ([1]; 1 mg/kg IV) was 49%. For the same molecule, the “Mean tumor volume (mm^3) D 0” value ([1]; 3 mg/kg IV) was 125.82 mm^3, the “Mean tumor volume (mm^3) D 21” value ([1]; 3 mg/kg IV) was 130.38 mm^3 and the “TGI (%) D 21” value ([1]; 3 mg/kg IV) was 100%. The “Mean tumor volume (mm^3) D 0” value ([1]; 10 mg/kg IV) was 124.94 mm^3, the “Mean tumor volume (mm^3) D 21” value ([1]; 10 mg/kg IV) was 82.6 mm^3 and the “TGI (%) D 21” value ([1]; 10 mg/kg IV) was 134%. For the same molecule, the apoptosis-inducing effect (BxPC-3 cells; BxPC-3, 0.196 nM, 120 hours) was “obviously induced the degradation of protein pro-PARP”, the apoptosis-inducing effect (BxPC-3 cells; BxPC-3, 120 hours, over the tested concentrations) was “concentration dependent” and the IC50 (HT-29; [4]) was > 654 nM. For the same molecule, the IC50 (HT-29; [5]) was > 654 nM, the IC50 (HT-29; read-out: IC50 (nM) Mean ± SD) was > 654 nM and the IC50 (HT1376; [4]) was 0.24 nM. For the same molecule, the IC50 (HT1376; [5]) was 0.2 nM, the IC50 (HT1376; read-out: IC50 (nM) Mean ± SD) was 0.22 ± 0.03 nM and the IC50 (Calu-3; [4]) was 3.2 nM. The IC50 (Calu-3; [5]) was 3.5 nM, the IC50 (Calu-3; read-out: IC50 (nM) Mean ± SD) was 3.35 ± 0.21 nM and the “Mean tumor volume (mm^3) D 0” value ([2]; 1 mg/kg IV) was 119.6 mm^3. The “Mean tumor volume (mm^3) D 21” value ([2]; 1 mg/kg IV) was 268.6 mm^3, the “TGI (%) D 21” value ([2]; 1 mg/kg IV) was 88% and the “Mean tumor volume (mm^3) D 0” value ([2]; 3 mg/kg IV) was 121.1 mm^3. The “Mean tumor volume (mm^3) D 21” value ([2]; 3 mg/kg IV) was 105.4 mm^3, the “TGI (%) D 21” value ([2]; 3 mg/kg IV) was 113% and the “Mean tumor volume (mm^3) D 0” value ([2]; 10 mg/kg IV) was 121.6 mm^3. The “Mean tumor volume (mm^3) D 21” value ([2]; 10 mg/kg IV) was 96.7 mm^3, the “TGI (%) D 21” value ([2]; 10 mg/kg IV) was 120% and the internalization ([3]; BxPC-3, 37° C., 3 to 48 hours, time-dependent) was “internalized into the cells”. For the same molecule, the “internalization compared with antibody h23-12” value ([3]; BxPC-3, 24 hour) was “internalized more at 24 hour than antibody h23-12”.
